PubChem BioAssay AID1745853 (National Center for Advancing Translational Sciences (NCATS), 2022)
This is one part of the list. The main result of the screen is listed elsewhere. These columns were measured beside it and carry no call.

Tests used:
Assay in all cases: Primary Screen for Target Class Profiling of Small Molecule Inhibitors of Methyltransferases
[1] = target: Glycine N-methyltransferase (Homo sapiens) (UniProt Q14749); details: purified enzyme, MTase-Glo SAH luminescence; measured here: GNMT inhibition; at 40 µM; stronger effect = lower value
Procedure, shortened: (§1)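 Each enzyme was reacted with SAM and its substrate, with compounds tested once at 40 uM; SAH formed was read by MTase-Glo luminescence.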

[2] = target: Guanidinoacetate N-methyltransferase (Homo sapiens) (UniProt Q14353); details: purified enzyme, MTase-Glo SAH luminescence; measured here: GAMT inhibition; at 40 µM; stronger effect = lower value
Procedure, shortened: as §1

[3] = target: Histamine N-methyltransferase (Homo sapiens) (UniProt P50135); details: purified enzyme, MTase-Glo SAH luminescence; measured here: HNMT inhibition; at 40 µM; stronger effect = lower value
Procedure, shortened: as §1

[4] = target: Nicotinamide N-methyltransferase (Homo sapiens) (UniProt P40261); details: purified enzyme, MTase-Glo SAH luminescence; measured here: NNMT inhibition; at 40 µM; stronger effect = lower value
Procedure, shortened: as §1

[5] = target: Phenylethanolamine N-methyltransferase (Homo sapiens) (UniProt P11086); details: purified enzyme, MTase-Glo SAH luminescence; measured here: PNMT inhibition; at 40 µM; stronger effect = lower value
Procedure, shortened: as §1
% is scaled to controls: 0 for no effect and ±100 for the full control effect.

| SMILES | activity change, negative = inhibition [1] | activity change, negative = inhibition [2] | activity change, negative = inhibition [3] | activity change, negative = inhibition [4] | activity change, negative = inhibition [5] |
| --- | --- | --- | --- | --- | --- |
| O=C(c1ccc(Cn2ccn3nc4c(c3c2=O)CCCC4)cc1)N1CCN(c2ccccn2)CC1 | -11.7% | -7.82% | -9.98% | -26% | -5.85% |
| O=C(CCn1ccc2cc(S(=O)(=O)N3CCCCC3)ccc21)NCCc1ccc(Cl)cc1 | -1.35% | 0.056% | 4.32% | -6.14% | 0.47% |
| CC(C)NC(=O)c1ccnc(-c2cc(NC3CCCC3)nc3[nH]ccc23)c1 | -11.9% | -7.86% | -9.29% | -14.4% | -16.3% |
| C[C@@H]1O[C@@H](O[C@@H]2[C@@H](O)[C@H](O[C@@H]3[C@@H](O)[C@@H](O)[C@H](O[C@H]4[C@H](OC(=O)[C@]56CCC(C)(C)C[C@H]5C5=CCC7[C@@]8(C)C[C@H](O)[C@H](O[C@@H]9O[C@@H](C)[C@H](O)[C@@H](O)[C@H]9O)[C@@](C)(CO)C8CC[C@@]7(C)[C@]5(C)C[C@H]6O)O[C@H](C)[C@H](O)[C@@H]4O)O[C@H]3C)OC[C@H]2O)[C@H](O)[C@H](O)[C@H]1O (stereo not given in full) | 0.757% | -3.15% | 3.87% | -1.77% | 8.71% |
| O=C(c1cn(CC2CCCO2)nn1)N1CCN(c2cccc(C(F)(F)F)c2)CC1 (stereo not given) | -5.04% | -8.37% | -4.8% | -13.5% | -4.94% |
| CCC(CC)C(=O)OC12C(OC(=O)C(C)C)C(C)C3(O)C(C=C(CO)CC4(O)C(=O)C(C)=CC43)C1C2(C)C (stereo not given) | -1.26% | -6.5% | 4.36% | -21.3% | 0.103% |
| COc1cccc(CN2C(=O)c3cc4ccccc4n3CC2(C)C(=O)NCCC(C)C)c1 (stereo not given) | 2.54% | 0% | 3.92% | 2.55% | -0.188% |
| CC(C)(C)c1cc(C(=O)NCc2cccnc2)nn2cccc12 | -12.3% | -4.72% | -4.84% | -20.2% | -7.97% |
| Cc1cccc(C2c3cccn3-c3sc4c(c3CN2C(=O)Nc2ccc3c(c2)OCCO3)CCCC4)c1 (stereo not given) | -1.73% | 2.98% | -4.32% | 0.063% | 0.671% |
| COCCN(C)Cc1ccc2nc3sc(C(=O)N(C)C4CCCCC4)cn3c2c1 | 3.18% | 5.18% | -71.4% | -5.73% | 4.47% |
| CCCN1C(=O)c2c(C(=O)NCCCc3ccccc3)ncn2CC1(C)C(=O)NCCC(C)C (stereo not given) | -2.4% | 0% | 2.46% | -6.4% | 3.01% |
| O=C(CCC[C@@H]1[C@H]2CCCN3CCC[C@@H](CN1Cc1ccccc1)[C@@H]23)Nc1cccnc1 | -9.14% | -6.69% | -55.4% | -10.4% | -3.87% |
| Cc1ccc(N2CCN(C(=O)c3cc(C(F)(F)F)nn3C)CC2=O)cc1 | -1.6% | -1.69% | -0.705% | -4.6% | 13.1% |
| COc1cccc(Nc2nccc3c(=O)cc(-c4ccccn4)oc23)c1 | -47.7% | -21.5% | -36.2% | -42.1% | -32.5% |
